According to PubChem BioAssay AID686979 (National Center for Advancing Translational Sciences (NCATS), 2013):
Where “and” joins values, the source holds several entries; their conditions need not be identical. Equal values may be shown once. Hit rate of the full screen: of about 420,000 compounds, about 50,000 (12%) were called active. Inconclusive results, whose numbers are uncertain, are shown with a selection of clear calls. The call rests on the fitted dose curve; in most records, active means well fitted inhibition curve with a large enough effect; inconclusive means small, poorly fitted or top-dose-only effect; inactive means flat fitted curve, though single readings scatter. A potency beside an inconclusive call is a rough fit, not a confirmed value.

test: qHTS for Inhibitors of human tyrosyl-DNA phosphodiesterase 1 (TDP1): qHTS in cells in presence of CPT; conditions: chicken DT40 Tdp1-/-;hTDP1 cells + 20 nM CPT, ATP luminescence, 48 h; activity change, negative = growth inhibition: at 46.2 µM (top of the series) unless noted; further: nearly all actives have a fitted effect of over 55% in size
Outline: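 Chicken DT40 Tdp1-/- cells stably complemented with human TDP1 were seeded at 400 cells/well in medium containing 20 nM camptothecin, exposed to pin-transferred compounds, and grown at 37 °C for at least 48 hr. Viability was read as ATP luminescence.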
On the % scale 0 is the no-effect control and ±100 the full control effect; potency means the concentration at half of the fitted maximal effect; tags describe the fitted curve by direction and shape.

Row | Compound | Potency | activity change, negative = growth inhibition
1 | CN(C)C(CNC(=O)c1cc(S(=O)(=O)N(C)c2ccc(F)cc2)ccc1Cl)c1cccs1 (centres undefined) | active: 5.8 µM | 
2 | O=C1COc2ccc(S(=O)(=O)N3CCN(c4cccc(C(F)(F)F)c4)CC3)cc2N1 | inactive | 
3 | Cc1ccc(Cl)cc1N1CCN(S(=O)(=O)c2ccc3c(c2)CCCN3C(=O)C2CCC2)CC1 | inactive | 
4 | CCCCCn1c(-c2ccc(OC)c(OC)c2)nc2ccccc21 | inconclusive: 16.4 µM [inhibitor, single point] | 
5 | O=[N+]([O-])c1cc(S(=O)(=O)N2CCCC2)ccc1NCCc1ccccc1 | inconclusive: 29.1 µM [inhibitor, single point] | 
6 | COc1ccc(NS(=O)(=O)c2ccc3[nH]c4c(c3c2)CCCC4)cc1Cl | inconclusive: 29.1 µM [inhibitor, single point] | 
7 | c1ccc(-c2ccc(CN3C[C@@H]4C(c5ccccc5)C5(c6cccnc6)CC4(C5)[C@H]3c3ccccc3)cc2)cc1 (some centres undefined) | inconclusive: 25.9 µM [inhibitor, single point] | 
8 | OCCc1ccc(-c2ccc(Cl)cc2)o1 | inactive | 
9 | Cc1ccc(CN2C(=O)c3oc4ccc(C)cc4c(=O)c3C2c2ccc(O)cc2)cc1 (centres undefined) | active: 16.4 µM | 
10 | COc1ccc(CCN2C(=O)CS/C2=N/NC(=O)c2ccccc2F)cc1OC | inconclusive: 14.6 µM [inhibitor, single point] | 
11 | CCOc1ccccc1CN1CCNC(=O)C1CC(=O)N(C)CCc1cnn(C)c1 (centres undefined) | inactive | 
12 | COc1cc(OC)c(NC(=O)Cn2c(=O)oc3cc(S(=O)(=O)N4CCCC4)ccc32)cc1Cl | inconclusive: 16.4 µM [inhibitor, single point] | 
13 | CC(C)Oc1ccc(F)cc1-c1cc(C(=O)Nc2ccccc2)[nH]n1 | inconclusive: 25.9 µM [inhibitor, single point] | 
14 | COc1ccccc1OCC(=O)Nc1ccc(N2CCCCC2)cc1 | inconclusive: 29.1 µM [inhibitor, single point] | 
15 | C(=C\c1ccco1)/C1=NN(c2ccccc2)C(c2ccco2)C1 (centres undefined) | inconclusive: 25.9 µM [inhibitor, single point] | 
16 | CC(C)c1c(C(=O)N/N=C/c2ccc(OCc3ccc(F)cc3)cc2)nnn1-c1nonc1N | inconclusive: 18.4 µM [inhibitor, single point] | 
17 | Nn1cnnc1N/N=C\c1ccc(-c2ccccc2[N+](=O)[O-])o1 | inconclusive: 9.2 µM [inhibitor, partial curve] | 
18 | CCN(C(=O)c1cccc(F)c1)c1ccccc1C | inconclusive: 25.9 µM [inhibitor, single point] | 
19 | CN1CCN(C(=O)c2cc3c(c(-c4cccc(-c5cc6ccccc6o5)c4)n2)[C@H](CCO)N(S(=O)C(C)(C)C)C3)CC1 (some centres undefined) | inconclusive: 20.6 µM [inhibitor, single point] | 
20 | COc1ccc(OC)c(CCNC(=O)C(C)n2nc(C)c3c(C)n(-c4ccccc4)nc3c2=O)c1 (centres undefined) | inconclusive: 20.6 µM [inhibitor, single point] | 
21 | Cc1ccc(OCC(=O)N(Cc2ccco2)Cc2ccc(C)o2)cc1 | active: 16.4 µM | 
22 | CCc1ccc2[nH]c(=O)c(CN(CCN(C)C)C(=O)Nc3ccccc3OC)cc2c1 | inconclusive: 25.9 µM [inhibitor, single point] | 
23 | COCCNC(=O)C1Cc2c(-c3ccc(NC(C)=O)cc3)ccnc2O1 (centres undefined) | inconclusive: 29.1 µM [inhibitor, single point] | 

Row | Compound | Potency | activity change, negative = growth inhibition
24 | O=C(NCCc1ccccc1)c1cc(-c2ccccc2)c(N2CCOCC2)s1 | inconclusive: 18.4 µM [inhibitor, single point] | 
25 | Cc1ccc(CCN2CC(C(=O)NCCCN3CCOCC3)CC2=O)cc1 (centres undefined) | inactive | 
26 | CCOc1ccc(NC(=O)Cn2nnc(-c3ccccc3F)n2)cc1 | active: 20.6 µM | 
27 | COc1ccc(/C=C2\N=C3CCCN3C2=O)cc1 | inactive | 
28 | NC(=S)NN=C1c2ccccc2-c2ccccc21 | active: 5.17 µM | 
29 | CCCCCCCc1nc2nc(C)c(Br)c(=O)n2[nH]1 |  | inconclusive: -32.2% [inhibitor]
30 | COC(=O)[C@@]1(Sc2ccc(C)cc2)CC(=O)N[C@@H]1c1ccc(C(F)(F)F)cc1 | active: 14.6 µM | 
31 | Cc1ccc(Cn2cc(CN3CC(N4CCN(C5CCN(C)CC5)CC4)CS3(=O)=O)nn2)cc1 (centres undefined) | inactive | 
32 | Cc1ccc2cc(C#N)c(NCc3ccco3)nc2c1 | active: 23.1 µM | 
33 | Cc1cc(C)c(C)c(S(=O)(=O)N2CCC(C(=O)NNC(=O)c3ccccc3O)CC2)c1C | inconclusive: 29.1 µM [inhibitor, single point] | 
34 | O=C(Nc1ccccc1)NC1(C(=O)NCc2cccs2)CCCCC1 | inactive | 
35 | C#C[C@]1(O)CC[C@H]2[C@@H]3CCC4=CCCC[C@@H]4[C@H]3C(=C)C[C@@]21CC | inactive | 
36 | NC(=O)c1ccc(NC(=O)c2cnc3ccccc3n2)cc1 | inactive | 
37 | CC1(C)CC2(CCO1)N1CC3(C)CN2CC(C)(C1)C3O (centres undefined) | inactive | 
38 | CNC(=O)CSc1nc2cccnc2n1C1CCCCC1 | inactive | 
39 | COc1cccc(CCNC(=O)c2c(O)nc3ccccn3c2=O)c1 | active: 23.1 µM | 
40 | CSc1nc2ccccc2cc1/C=C(\C#N)c1cccc(Cl)c1 | inconclusive: 29.1 µM [inhibitor, single point] | 
41 | N#Cc1cccc(OCCCN2CCC(C(O)(c3ccccc3)c3ccccc3)CC2)c1 | inconclusive: 29.1 µM [inhibitor, single point] | 
42 | COc1ccc(CC(NC(C)=O)C(=O)NC2CCN(c3c4c(nc5ncnn35)CCC4)CC2)cc1 (centres undefined) | inactive | 
43 | COCCCNC(=O)C1CCN(c2nn3cc(-c4ccc(F)cc4)nc3s2)CC1 | inconclusive: 7.31 µM [inhibitor, partial curve] | 
44 | CCN(CC)C(=O)[C@H]1C[C@H](CC(=O)NCCc2ccccn2)C(=O)N2CCc3c([nH]c4ccc(Cl)cc34)[C@]12C | inconclusive: 25.9 µM [inhibitor, single point] | 
45 | O=C(CC1CCCCC1)N1CCCC(c2nc(-c3ccc(S(=O)(=O)N4CCCC4)cc3)no2)C1 (centres undefined) | active: 23.1 µM | 
46 | CCCCc1cc(=O)oc2cc(OCC(=O)Nc3cccnc3)c(Cl)cc12 | inconclusive: 23.1 µM [inhibitor, partial curve] | 

Row | Compound | Potency | activity change, negative = growth inhibition
47 | C=C(C)CNC(=S)N/N=C/c1c(F)cccc1F | inconclusive: 29.1 µM [inhibitor, single point] | 
48 | CCc1ccccc1N(CC)C(=O)CCc1nc(-c2ccc(C)cc2)no1 | active: 23.1 µM | 
49 | CCOc1ccccc1NC(=O)c1cnn2c(C(F)F)cc(-c3ccccc3)nc12 | active: 14.6 µM | 
50 | C[C@@H](CSc1ccc(Br)cc1)CN1CC[C@H](C(C)(C)C)CCC1=O | inconclusive: 31.6 nM [inhibitor, full curve, poor fit] and inconclusive: 25.9 µM [inhibitor, single point] | 
51 | CCc1ccc(N2C(=O)C3C4C=CC(CC4)C3C2=O)cc1 (centres undefined) | inconclusive: 25.9 µM [inhibitor, single point] | 
52 | O=C(C[n+]1cc(-c2ccc(Cl)cc2)n2c1CCC2)Nc1nc(-c2ccccc2)cs1 | inconclusive: 29.1 µM [inhibitor, single point] | 
53 | CC(C)Oc1ccc(F)cc1-c1cc(C(=O)N2CCc3ccccc3C2)[nH]n1 | inconclusive: 29.1 µM [inhibitor, single point] | 
54 | C[C@@H]1CN([C@@H](C)CO)C(=O)c2cccc(NS(C)(=O)=O)c2O[C@H]1CN(C)CC1CCCCC1 | inactive | 
55 | O=c1c(/C=N\NS(=O)(=O)c2ccccc2)coc2ccc(Cl)cc12 | inconclusive: 5.17 µM [inhibitor, partial curve] | 
56 | CCOC(=O)C(=NC1CCS(=O)(=O)C1)NNc1ccc(Br)cc1 (centres undefined) | inactive | 
57 | O=C(O)c1ccc(NS(=O)(=O)c2cccc(S(=O)(=O)c3ccc(Cl)c(Cl)c3)c2)cc1 | inactive | 
58 | CCOC(=O)c1c(CN2CCCCC2)n(C)c2cc(Br)c(O)c(CN(C)C)c12 | active: 18.4 µM | 
59 | COc1ccc2c(c1)c1nnc(SCC(=O)N3C(C)CCCC3C)nc1n2C (centres undefined) | inconclusive: 16.4 µM [inhibitor, single point] | 
60 | COc1cccc(Cn2c(=O)c(-c3ccc(Cl)cc3)nc3cnc(N4CCNCC4)nc32)c1 | active: 5.8 µM | 
61 | Clc1ccc(-n2nnnc2Sc2ncnc3sccc23)cc1 | active: 2.31 µM | 
62 | COc1c(C=O)c(O)cc2c1C(=O)c1ccccc1C2=O | inactive and inconclusive: 56.2 µM [inhibitor, single point] | 
63 | CCN(CC)C(=O)Cn1cc(SCC(=O)NC)c2ccccc21 | inactive | 
64 | CC(=O)c1c(N2CCN(C)CC2)[nH]c(-c2ccccc2)nc1=S | inconclusive: 29.1 µM [inhibitor, single point] | 
65 | CC1=C(C(=O)OC(C)C)C(c2ccc(F)cc2)NC(=O)N1 (centres undefined) | inconclusive: 13 µM [inhibitor, partial curve] | 
66 | CN(C(=O)c1cccc(NC(=O)Cc2ccc(NC(=O)C3CCN(C(=O)C4CCC4)CC3)cc2)c1)C1CCC1 | inconclusive: 18.4 µM [inhibitor, single point] | 
67 | O=C(Nc1ccccc1Br)c1ccc2nccnc2c1 | inconclusive: 29.1 µM [inhibitor, single point] | 
68 | C=CCN=C1NN=C(c2cc(C)n(CC=C)c2C)CS1 | inconclusive: 23.1 µM [inhibitor, single point] | 
69 | Cc1cccc(Nc2c([N+](=O)[O-])cc(C(=O)N3CC(=O)Nc4ccccc43)cc2[N+](=O)[O-])c1 | inconclusive: 20.6 µM [inhibitor, single point] | 
